Changes are numbered by the printed parent chain; changes in the protein carry UniProt numbers. The list shows a part of the results.
T1: RBFOX1 RRM (Homo sapiens, UniProt Q9NWB1 109-208)
T1 sequence: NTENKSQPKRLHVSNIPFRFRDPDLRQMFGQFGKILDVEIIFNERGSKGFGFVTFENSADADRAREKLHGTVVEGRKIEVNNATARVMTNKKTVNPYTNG

B1: AUUGCAG (DNA:RNA)
RNA: GGGAGACCGGAAUUCAGAUUGUCCAUUGCAGUUAAAUCCCGUCGUAGCCACCA
DNA 1: CAATCTGAATTCCGGTCTCCC
DNA 2: TGGTGGCTACGACGGGATT
B2: UACUCCA (DNA:RNA)
RNA: B1 RNA with A25U, U26A, U27C, G28U, A30C, G31A
DNA 1: CAATCTGAATTCCGGTCTCCC
DNA 2: TGGTGGCTACGACGGGATT
B3: AUCCCCG (DNA:RNA)
RNA: B1 RNA with U27C, G28C, A30C
DNA 1: CAATCTGAATTCCGGTCTCCC
DNA 2: TGGTGGCTACGACGGGATT
B4: GUCUCUA (DNA:RNA)
RNA: B1 RNA with A25G, U27C, G28U, A30U, G31A
DNA 1: CAATCTGAATTCCGGTCTCCC
DNA 2: TGGTGGCTACGACGGGATT
B5: AUUCUGG (DNA:RNA)
RNA: B1 RNA with G28C, C29U, A30G
DNA 1: CAATCTGAATTCCGGTCTCCC
DNA 2: TGGTGGCTACGACGGGATT
B6: CCUCAGU (DNA:RNA)
RNA: B1 RNA with A25C, U26C, G28C, C29A, A30G, G31U
DNA 1: CAATCTGAATTCCGGTCTCCC
DNA 2: TGGTGGCTACGACGGGATT
B7: AAUACAA (DNA:RNA)
RNA: B1 RNA with U26A, G28A, G31A
DNA 1: CAATCTGAATTCCGGTCTCCC
DNA 2: TGGTGGCTACGACGGGATT
B8: GUUUUCA (DNA:RNA)
RNA: B1 RNA with A25G, G28U, C29U, A30C, G31A
DNA 1: CAATCTGAATTCCGGTCTCCC
DNA 2: TGGTGGCTACGACGGGATT
B9: UAUCCUA (DNA:RNA)
RNA: B1 RNA with A25U, U26A, G28C, A30U, G31A
DNA 1: CAATCTGAATTCCGGTCTCCC
DNA 2: TGGTGGCTACGACGGGATT

The binders below were run against T1, RBFOX1 RRM (assay: EMSA; HiTS-Eq, 1 nM pool, 10 min; buffer printed only for the single-RNA assays: 10 mM Tris pH 7.5, 150 mM NaCl, 3.4 mM EDTA, 0.001% NP-40, 30 C). Conditions: tags: His6 N-terminal (pET28a); label: 5' 32P.
Summary of the method: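 A pool of RNA with 7 randomized nucleotides, 5′-radiolabelled and with DNA-annealed flanks, was equilibrated at 1 nM for 10 min in 50 µL with purified RbFox RRM, wild type or mutant, across increasing protein concentrations. Free RNA was separated by 8% native PAGE, excised, reverse-transcribed, barcoded by PCR and sequenced. Relative association constants were obtained from read-count changes of each RNA species versus the control reaction and normalised to the cognate motif.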

How did the binding signal turn out when B1 was run?
Its binding signal is 0.013 KA relative to UGCAUGU.

For B2, which binding signal is on record?
Its binding signal is 0.0027 KA relative to UGCAUGU.

With B3 as the binder, how does the binding signal read?
The binding signal was 0.00284 KA relative to UGCAUGU.

Which binding signal does the source give for B4 here?
Its binding signal is 0.00775 KA relative to UGCAUGU.

Which binding signal does the source give for B5 here?
The binding signal was 0.0124 KA relative to UGCAUGU.

How did the binding signal turn out when B6 was run?
Its binding signal is 0.0083 KA relative to UGCAUGU.

How did the binding signal turn out when B7 was run?
The binding signal was 0.00311 KA relative to UGCAUGU.

With B8 as the binder, how does the binding signal read?
The binding signal was 0.0141 KA relative to UGCAUGU.

With B9 as the binder, how does the binding signal read?
The binding signal was 0.00279 KA relative to UGCAUGU.

Source: publication PMC9911399, “Two distinct binding modes provide the RNA-binding protein RbFox with extraordinary sequence specificity”
